PubChem BioAssay AID540317 (National Center for Advancing Translational Sciences (NCATS), 2011)
The campaign covered roughly 390,000 compounds. About 2,200 (0.56%) were called active. Inconclusive means that the source gave no clear call. Such entries were picked first, then a sample of the others. The call rests on the fitted dose curve; in most records, active means well fitted inhibition curve with a large enough effect; inconclusive means small, poorly fitted or top-dose-only effect; inactive means no such curve, though single readings can be large or run the other way. Potencies of inconclusive entries are doubtful fits and often do not repeat.

Target: Chromobox protein homolog 1 (Homo sapiens) (UniProt P83916)
Assay: HTS for Inhibitors of HP1-beta Chromodomain Interactions with Methylated Histone Tails; further: nearly all actives have a fitted effect of over 70% in size
Settings: AlphaScreen HP1-beta / biotin-H3K9me3 peptide binding; series mostly up to 114 µM
How it was run: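 HP1-beta protein (50 nM final) preincubated 30 min at room temperature with biotinylated H3(1-18)K9me3 peptide (50 nM) in PBS pH 7.4, 0.01% Tween-20, then compound added for 30 min. AlphaScreen streptavidin donor/nickel chelate acceptor beads (10 ug/mL final), 30 min dark, luminescence read.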
Potency means the concentration at half of the fitted maximal effect; tags describe the fitted curve by direction and shape.

Sequence of UniProt P83916 (P83916 whole entry, looked up): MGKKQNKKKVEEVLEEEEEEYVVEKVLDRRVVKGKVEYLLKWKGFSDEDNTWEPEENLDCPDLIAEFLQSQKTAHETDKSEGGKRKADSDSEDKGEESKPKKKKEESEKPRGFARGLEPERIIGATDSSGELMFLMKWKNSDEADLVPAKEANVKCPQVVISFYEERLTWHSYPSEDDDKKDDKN

Structure (SMILES)	Potency
Cc1cc(C)c2c(n1)sc1c(=O)n(Cc3ccc(F)cc3)cnc12	inactive
COCC(C)NCc1cccc(OC)c1OC (stereo not given)	inconclusive: 44.7 µM [inhibitor, partial curve, poor fit]
CCOC(=O)CCc1c(C)nc2ncnn2c1C	inconclusive: 89.1 µM [inhibitor, single point]
COc1ccc(OC)c(NC(=O)c2c(NCc3ccc(OC)c(OC)c3)sc3c2CCC(C)C3)c1 (stereo not given)	inconclusive: 44.7 µM [inhibitor, partial curve]
O=C(Nc1cccc(Cl)c1)c1cccc(N2C(=O)C3CC=CCC3C2=O)c1 (stereo not given)	inconclusive: 70.8 µM [inhibitor, partial curve]
O=C(CN1CCN(C/C=C/c2ccccc2)CC1)Nc1ccccc1C(=O)NC1CC1	inconclusive: 15.8 µM [inhibitor, partial curve, poor fit]
COc1ccc(NC(=S)Nc2ccc(S(N)(=O)=O)cc2)c(OC)c1	inactive
CC(C)c1nnc(NC(=O)CCC(=O)NCc2ccc3c(c2)OCO3)s1	inactive
COc1cc(CN2CCc3ccccc3C2)cc([N+](=O)[O-])c1O	inconclusive: 28.2 µM [inhibitor, partial curve]
CC(C)N(Cc1cn[nH]c1-c1ccc(-c2ccccc2)cc1)Cc1nccn1C	inconclusive: 44.7 µM [inhibitor, partial curve]
NS(=O)(=O)c1cccc(NC(=S)NC(=O)c2cccc([N+](=O)[O-])c2)c1	inconclusive: 25.1 µM [inhibitor, partial curve]
CCNc1ccc(S(=O)(=O)N(C)C)cc1NCC(=O)Nc1ccc(F)c(Cl)c1	inconclusive: 50.1 µM [inhibitor, partial curve]
COc1ccc(NC(=O)c2c(OC)cccc2OC)c(OC)c1	inconclusive: 39.8 µM [inhibitor, partial curve, poor fit]
O=C(NC(=S)Nc1cccc(Cl)c1N1CCCCC1)c1ccc2c(c1)OCCO2	inconclusive: 50.1 µM [inhibitor, partial curve]
COc1ccc(CN2CCN(c3ncccn3)CC2)c(OC)c1	inconclusive: 15.8 µM [inhibitor, full curve]
C=C1CC2C(=O)N(Cc3cc(OC)ccc3OC)C(C(=O)OCC)(C(=O)OCC)C1N2C(=O)OC(C)(C)C (stereo not given)	inactive
COc1ccc(/C=C/C(=O)Nc2cc(C)on2)cc1	inconclusive: 39.8 µM [inhibitor, single point]
CCOC(=O)C1Sc2[nH]c(=O)sc2C(c2ccc(Cl)cc2)C1C(=O)OCC (stereo not given)	inconclusive: 70.8 µM [inhibitor, partial curve, poor fit]
O=S(=O)(CS(=O)(=O)Oc1ccccc1)Oc1ccccc1	inconclusive: 31.6 µM [inhibitor, partial curve, poor fit]
O=C(C[n+]1ccc(CCSc2ccc(F)cc2)cc1)c1ccccc1	active: 44.7 µM
Cc1cnc(NC(=O)CN2CCN(c3ccccc3F)CC2)s1	inconclusive: 17.8 µM [inhibitor, full curve, poor fit]
Cc1ccc(C(=O)NC(=S)Nc2ccc(S(=O)(=O)N3CCN(C)CC3)cc2)cc1	inconclusive: 39.8 µM [inhibitor, partial curve]
CCOc1cccc(/C=N/NC(=O)c2ccc3c(c2)OCCO3)c1O	inactive

Structure (SMILES)	Potency
Cc1c(NC(=O)c2ccco2)c(=O)n(-c2ccccc2)n1C	inactive
COc1ccc(N(C(=O)c2snc(C(N)=O)c2N)C(C(=O)NCC2CCCO2)c2ccc(C)o2)cc1OC (stereo not given)	inconclusive: 89.1 µM [inhibitor, single point]
CCc1ccccc1NC(=O)CSc1nc2ncccc2o1	inactive
CCOC(=O)C1=C(C)N(c2ccc(C)cc2)C(=O)/C1=C\c1ccc(O)c(OC)c1	inconclusive: 12.6 µM [inhibitor, full curve, poor fit]
CCOC(=O)C1=CN(Cc2ccco2)S(=O)(=O)NC1CC (stereo not given)	inactive
CC(C)c1nnc(NC(=O)CCC(=O)NC2CC2)s1	inactive
COC(=O)CCN(Cc1cc(OC)ccc1OC)S(=O)(=O)c1ccccc1Br	inactive
COc1cc(CN2CCC(C(=O)NC3CCCC3)CC2)cc(OC)c1O	inconclusive: 79.4 µM [inhibitor, partial curve, poor fit]
COc1ccc(-c2ccc(C)cc2)cc1C1C2C=CCC(C)C2C(=O)N1Cc1ccccc1 (stereo not given)	inactive
Cc1[nH][nH]c(=O)c1C(c1cc2c(cc1Br)OCO2)c1c(C)[nH][nH]c1=O	inactive
COc1ccc2[nH]c(C)c(CCNC(=S)Nc3cc(C)cc(C)c3)c2c1	inconclusive: 25.1 µM [inhibitor, full curve]
CN(C)S(=O)(=O)N1CCC(Oc2ccc(C(=O)N3CCCCCCC3)cc2)CC1	inactive
Cc1csc(NC(=O)CSc2nnc(Cc3cccn3C)n2CCc2ccccc2)n1	inconclusive: 28.2 µM [inhibitor, full curve]
CCC(=O)N1CCc2cc(S(=O)(=O)NCCN3CCC(C)CC3)ccc21	inactive
CC(=O)Nc1cc(F)c2c(c1F)Cc1cc(F)ccc1-2	inactive
Nc1nc(SCC(=O)Nc2ccc(Cl)cn2)n[nH]1	inconclusive: 25.1 µM [inhibitor, single point]
CCC(=O)Nc1nc2ccc(S(C)(=O)=O)cc2s1	inactive
CCC(C)C(=O)N1c2ccccc2C(=C2SC(C(=O)OC)=C(C(=O)OC)S2)C(=S)C1(C)C (stereo not given)	inconclusive: 8.91 µM [inhibitor, partial curve, poor fit]
O=C(c1cc(=O)[nH]c2ccccc12)N1CCN(c2cccc(C(F)(F)F)c2)CC1	inconclusive: 31.6 µM [inhibitor, full curve]
O=C(CCSC1=NCCCN1)c1ccc(F)cc1	inconclusive: 70.8 µM [inhibitor, partial curve]
CCOc1ccc(NC(=O)CN(C)C(=O)c2cc3c(s2)CCCCC3)cc1OCC	inactive
COc1cc(/C=C2\SC(=S)N(NC(=O)c3ccccc3OC)C2=O)ccc1O	active: 25.1 µM
